Reference: the supplement of paper PMC12217912
The other results are listed elsewhere or left out. The full chains were built here from the parent and the listed change. Inactive controls read about 0.05.

B1: TEV protease; numbered along this chain (parent)
chain: MGESLFKGPRDYNPISSSICHLTNESDGHTTSLYGIGFGPFIITNKHLFRRNNGTLVVQSLHGVFKVKDTTTLQQHLVDGRDMIIIRMPKDFPPFPQKLKFREPQREERICLVTTNFQTKSMSSMVSDTSCTFPSGDGIFWKHWIQTKDGQCGSPLVSTRDGFIVGIHSASNFTNTNNYFTSVPKNFMELLTNQEAQQWVSGWRLNADSVLWGGHKVFMVKPEEPFQPVKEATQL

Variants of: B1
Assay: raw area under fraction-flipped curve 0-4 h after induction (AUC4h, not background-subtracted), DNA-recorder readout of cleavage of the substrate (dimensionless); higher = more cleavage of the substrate by the protease variant
Conditions: temperature: 34 °C; time window: 0-4 h after rhamnose induction
Description: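 In vivo DNA recorder in E. coli TOP10(DE3) ΔrhaA at 34 °C. Each TEVp single-site mutant (parent TEVp 0) is paired with a single-site variant of the 7-mer TEVs (canonical ENLYFQ|S). The substrate sits between flexible linkers in a Bxb1-sfGFP-TEVs-SsrA fusion, so cleavage stabilises Bxb1 and speeds flipping of a recombination array, read by NGS. The value is the raw area under the fraction-flipped curve over 0-4 h after rhamnose induction (AUC4h), with ≥20 reads per time point. It is not background-subtracted; inactive controls average about 0.047.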
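Further: Bxb1 expression induced with 0.2% (w/v) L-rhamnose at OD600 near 0.5, cultures sampled hourly, flipped fraction per protease–substrate barcode pair counted by paired-end Illumina sequencing.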

Row | Variant | area with substrate ENLYFAS | area with substrate ENLYFCS | area with substrate ENLYFDS | area with substrate ENLYFES | area with substrate ENLYFFS | area with substrate ENLYFGS | area with substrate ENLYFHS | area with substrate ENLYFIS | area with substrate ENLYFKS | area with substrate ENLYFLS | area with substrate ENLYFMS | area with substrate ENLYFNS | area with substrate ENLYFPS | area with substrate ENLYFRS | area with substrate ENLYFSS | area with substrate ENLYFTS | area with substrate ENLYFWS | area with substrate ENLYFYS | area with substrate ENLYFVS
1 | K221N | 0.0557 | 0.056 | 0.0846 | 0.0698 | 0.0777 | 0.0606 | 0.0478 | 0.0565 | 0.021 | 0.0715 | 0.0643 | 0.0611 | 0.0582 | 0.0545 | 0.0648 | 0.0635 | 0.0527 | 0.0606 | –
2 | Q198Y | 0.0607 | 0.0463 | 0.0502 | 0.0753 | 0.0401 | – | – | 0.0576 | 0.053 | – | 0.0627 | 0.0626 | 0.0625 | – | 0.0647 | 0.0557 | 0.0483 | 0.064 | 0.055
3 | L22A | 0.0536 | 0.0481 | 0.0487 | 0.0272 | 0.0803 | 0.045 | 0.0457 | 0.0613 | 0.0502 | 0.0487 | 0.0513 | 0.0506 | 0.0554 | 0.0576 | – | 0.0549 | 0.0445 | 0.0573 | 0.0567
4 | G39D | 0.0464 | 0.0619 | 0.0438 | – | 0.0522 | – | 0.0647 | 0.0385 | 0.0427 | 0.0442 | 0.0365 | – | 0.0426 | 0.0327 | 0.0473 | 0.0331 | 0.0489 | 0.0461 | –
5 | K100W | 0.0567 | 0.0606 | – | 0.0701 | – | 0.0655 | 0.0628 | 0.0596 | – | – | 0.0644 | 0.0591 | – | 0.0539 | 0.0771 | – | – | 0.0708 | –
6 | E195D | 0.0615 | – | – | 0.065 | 0.0748 | 0.037 | 0.0409 | 0.0583 | 0.0855 | – | 0.0733 | – | – | – | 0.0564 | – | – | – | –
7 | G166T | 0.0234 | 0.0649 | – | 0.0496 | 0.0485 | – | 0.0503 | – | 0.0447 | – | – | – | 0.0691 | – | – | 0.0466 | – | – | –
8 | D11R | 0.0599 | 0.0473 | 0.0679 | 0.0608 | 0.0575 | – | 0.046 | 0.061 | 0.0622 | 0.0651 | 0.0605 | 0.0625 | 0.0673 | 0.147 | 0.0602 | 0.0368 | 0.0416 | 0.0478 | 0.0619
9 | I164H | 0.0587 | 0.0505 | – | – | 0.0532 | 0.0661 | 0.0563 | 0.043 | 0.0624 | – | – | 0.057 | – | – | 0.0575 | 0.0403 | 0.0532 | 0.0321 | 0.0468
10 | S32N | 0.0544 | – | – | 0.0685 | 0.0735 | 0.0644 | – | 0.0421 | 0.0581 | – | 0.0622 | 0.052 | 0.0634 | 0.0688 | 0.0552 | 0.0594 | 0.0527 | 0.0692 | 0.0482
11 | T31C | – | 0.0622 | 0.0581 | 0.0706 | 0.0691 | 0.0579 | 0.0721 | 0.0563 | 0.0614 | 0.0578 | 0.064 | 0.057 | 0.0483 | 0.0582 | 0.0583 | 0.0548 | 0.0539 | 0.058 | 0.0545
12 | Q118H | – | 0.0694 | – | 0.078 | 0.0581 | – | – | 0.0573 | 0.0592 | – | 0.0564 | 0.0705 | 0.0697 | 0.0338 | – | 0.0717 | 0.0528 | – | –
13 | E3P | – | 0.0476 | 0.0666 | 0.0826 | 0.0815 | 0.0287 | – | 0.0093 | 0.061 | 0.0563 | 0.0679 | 0.08 | – | – | 0.0694 | – | 0.0486 | 0.0668 | –
14 | G214V | – | 0.0825 | 0.0513 | 0.0505 | – | – | 0.0564 | 0.0562 | – | – | 0.0558 | 0.0516 | 0.0763 | 0.0625 | 0.0436 | 0.049 | 0.0521 | 0.0519 | 0.0696
15 | P9A | – | 0.0691 | – | – | 0.0868 | 0.0604 | 0.0641 | 0.0543 | – | – | 0.065 | – | 0.0569 | – | 0.0587 | – | 0.0547 | – | 0.0685
16 | L99S | – | 0.0485 | 0.0612 | – | 0.055 | – | – | 0.0585 | 0.0488 | – | 0.0495 | 0.0581 | 0.0572 | 0.0542 | – | 0.0508 | 0.0592 | – | 0.0496
17 | P89E | – | 0.0552 | 0.0522 | 0.0624 | – | 0.0602 | 0.0567 | 0.0624 | 0.0458 | – | 0.055 | 0.0597 | 0.0624 | 0.0479 | 0.059 | 0.0521 | 0.0352 | 0.0497 | –
18 | P228N | – | 0.0621 | – | 0.0684 | 0.0758 | – | – | 0.0639 | 0.0549 | 0.064 | 0.0682 | 0.0675 | 0.0565 | – | 0.053 | 0.0635 | 0.0698 | 0.0574 | –
19 | R109C | – | 0.0524 | 0.0585 | 0.075 | 0.063 | 0.0359 | – | 0.0475 | – | – | 0.0754 | 0.0771 | 0.0624 | 0.0573 | 0.06 | – | 0.0624 | 0.0601 | 0.0853
20 | Q197C | – | 0.0529 | – | 0.0647 | 0.067 | – | – | 0.0702 | – | 0.0487 | 0.0669 | 0.0589 | – | 0.0519 | 0.0604 | 0.0588 | 0.0597 | – | –
21 | E189D | – | 0.0937 | – | 0.0706 | 0.0568 | 0.066 | 0.0667 | 0.067 | – | – | 0.0794 | 0.0679 | – | – | 0.0631 | – | 0.0754 | 0.0504 | 0.0338
22 | N193P | – | 0.0539 | 0.0575 | 0.0609 | – | 0.0662 | – | 0.0658 | 0.0678 | – | 0.0681 | 0.0655 | 0.0474 | 0.065 | 0.055 | 0.0676 | 0.0742 | – | –
23 | T147Y | – | 0.0719 | – | 0.0614 | 0.0673 | 0.0702 | – | 0.0468 | – | 0.0596 | 0.0532 | 0.0345 | 0.0551 | – | 0.0661 | 0.0607 | – | – | 0.0638
24 | Q198V | – | 0.0632 | – | – | 0.0588 | – | – | 0.0566 | 0.0856 | 0.049 | 0.0622 | 0.074 | 0.0551 | 0.0604 | – | 0.06 | 0.0723 | – | –
25 | G35M | – | 0.0331 | – | – | – | – | – | – | – | – | 0.0569 | – | – | – | – | – | – | – | 0.0488
26 | P89W | – | 0.0409 | – | – | 0.0421 | 0.0397 | – | 0.0497 | 0.0458 | – | 0.076 | – | 0.0246 | – | – | 0.0454 | 0.0603 | – | 0.033
27 | I85C | – | 0.0487 | 0.0684 | 0.0607 | 0.0614 | 0.0441 | 0.0405 | 0.0644 | 0.0581 | 0.0388 | 0.0652 | – | 0.0529 | – | – | 0.0545 | 0.0635 | 0.0686 | –
